Values of other authors as cited in paper PMC8506653 (Clinical cancer research : an official journal of the …, 2021).

Tested on: patients with FLT3 positive AML
Conditions: front-line; cited from earlier work

CO[C@@H]1[C@H](N(C)C(=O)c2ccccc2)C[C@H]2O[C@]1(C)n1c3ccccc3c3c4c(c5c6ccccc6n2c5c31)C(=O)NC4 [midostaurin]
clinical outcomes on addition to standard intensive induction chemotherapy: improved clinical outcomes
